Source: PubChem BioAssay AID1346428 (National Center for Advancing Translational Sciences (NCATS), 2018)
The whole screen tested about 48,000 compounds, of which about 1,200 (2.5%) were called active. Roughly 2% stayed inconclusive and do not appear here.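 How the source made its calls: active means activation of at least 60% and not above a set upper limit (about 1 call in 100 departs from these limits); inconclusive means activation of 40% to 60%, or above that upper limit; inactive means activation under 40%.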 The list shows a part of the results.

Each molecule was assayed against Probable G-protein coupled receptor 32 (Homo sapiens) (UniProt O75388) (assay: qHTS for Agonists of Human Resolvin D1 Receptor DRV1). Details: CHO-K1 GPR32 beta-arrestin PathHunter luminescence, 90 min; at 76.9 µM; stronger effect = higher value; zero percent set by DMSO-only wells.
Sequence of UniProt O75388 (O75388 whole entry, looked up, the tested form may be a part): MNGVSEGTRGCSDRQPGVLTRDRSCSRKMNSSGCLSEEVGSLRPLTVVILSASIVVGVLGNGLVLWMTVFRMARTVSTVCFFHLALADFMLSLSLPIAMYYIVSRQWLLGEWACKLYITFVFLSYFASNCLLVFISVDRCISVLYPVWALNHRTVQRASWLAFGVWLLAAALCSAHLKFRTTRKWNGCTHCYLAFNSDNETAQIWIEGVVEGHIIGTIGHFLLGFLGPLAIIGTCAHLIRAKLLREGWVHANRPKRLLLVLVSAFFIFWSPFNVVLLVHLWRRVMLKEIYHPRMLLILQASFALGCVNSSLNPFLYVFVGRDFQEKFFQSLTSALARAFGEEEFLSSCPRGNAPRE
Method in brief: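 PathHunter enzyme-fragment complementation, CHO-K1 GPR32 stable line; 2,500 cells/well, overnight attach; cpd 90 min 37 °C 5% CO2; detection reagent 1 h RT; chemiluminescence. DMSO = EC0.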

Row | Structure (SMILES) | activation
1 | Cc1ccc(-n2c(=O)c3c(cnn3C)n(Cc3ccc(Cl)cc3)c2=O)cc1 | inactive: -28.4%
2 | Cc1nc2ccc(CN(C)c3ccc(C(=O)N[C@@H](CCC(=O)O)C(=O)O)s3)cc2c(=O)[nH]1 | inactive: -0.694%
3 | CCOc1cc(C(=O)Nc2ccc(NC(=O)c3cc4ccccc4o3)c(OC)c2)cc(OCC)c1OCC | active: 105%
4 | CCc1ccc(NC(=O)N(Cc2c[nH]c3ccccc23)C2CCCCC2)cc1 | inactive: -2.93%
5 | Cc1ccc(NS(=O)(=O)c2cc(-c3cc(C)no3)ccc2C)c(Cl)c1 | inactive: -1.22%
6 | CCc1ccccc1NC(=O)CSc1nnc(-c2ccc(OC)cc2)s1 | inactive: -1.8%
7 | CC(=O)Nc1ccc(NC(=O)C2CCN(S(=O)(=O)c3ccc4c(c3)CCCC(=O)N4)CC2)cc1 | inactive: 21.6%
8 | Cc1ccc(NC(=O)Nc2c[nH]c(=O)[nH]c2=O)c(Cl)c1 | inactive: -27.2%
9 | CCOc1ccc2nc(N3CCCC(C(=O)Nc4cc(C)ccc4C)C3)sc2c1 (centres undefined) | inactive: 10.2%
10 | CCc1nn(CC(=O)NCCc2ccc(Cl)cc2)c(=O)c2cc3ccccc3n12 | inactive: -5.94%
11 | Cc1cc(N2CCN(c3ccc(F)cc3)CC2)n2nc(-c3ccc(Cl)cc3)nc2n1 | inactive: -1.5%
12 | CCOC(=O)c1[nH]c(C)c(CCC(=O)Nc2ccccc2C(=O)OC)c1C | inactive: -17.5%
13 | Cc1oc2ncn(C)c(=O)c2c1C(=O)Nc1ccc(F)cc1 | inactive: 7.7%
14 | Cc1cc(OCC(=O)NC(Cc2c[nH]c3ccccc23)C(=O)O)ccc1Cl (centres undefined) | inactive: -11.3%
15 | Cc1cccc(N2CCN(C(=O)c3oc(=O)c4ccccc4c3-c3ccccc3)CC2C)c1 (centres undefined) | inactive: 7.12%
16 | CCOc1ccc2nc(N(Cc3cccnc3)C(=O)C3CCCCC3)sc2c1 | inactive: -9.67%
17 | NC[C@@H]1O[C@H](c2ccccc2)Cc2c1ccc(O)c2O | inactive: 0.207%
18 | Cc1ccc(C2CCN(C(=O)Nc3ccc(Cl)c(Cl)c3)C2)cc1 (centres undefined) | inactive: 32.7%
19 | Cc1ccc(-c2nnc(Nc3ccccc3)c3ccccc23)cc1S(=O)(=O)N1CCOCC1 | inactive: 19.5%
20 | Cc1ccc(CNC(=O)c2ccc3c(c2)N(Cc2ccccc2Cl)C(=O)CS3)cc1 | inactive: 20.9%
21 | COc1ccc(Cn2c(CCC(=O)Nc3ccc(C)cc3C)nc3cccnc32)cc1 | inactive: -8.9%
22 | CC(C)OCCCNC(=O)c1ccc(Cn2c(=O)c3cccn3c3cccnc32)cc1 | inactive: -9.3%
23 | COc1cccc(CNC(=O)c2cccc(-n3c(C)nc4cccnc43)c2C)c1 | inactive: 2.84%
24 | Cc1cccc(CSc2nc(=O)c3c(n2C)NC(=O)CC3c2cc(F)cc(F)c2)c1 (centres undefined) | inactive: -16.1%
25 | Cc1oc2ccc(O)c(CN3CCN(C)CC3)c2c1C(=O)Nc1ccccc1 | inactive: 9.75%
26 | O=C1CC2(CCCC2)CC(=O)N1CCNCC1COc2ccccc2O1 (centres undefined) | inactive: 3.1%
27 | Cc1ccsc1CN(C(=O)COc1ccc(Cl)cc1)C1CCS(=O)(=O)C1 (centres undefined) | inactive: -24%

Row | Structure (SMILES) | activation
28 | O=C(CCn1c(=O)c2sccc2n(CC(=O)Nc2ccccc2)c1=O)NCc1ccccc1Cl | inactive: 4.76%
29 | CCOc1cccc2cc(-c3cn4c(n3)sc3ccccc34)c(=O)oc12 | inactive: -2.93%
30 | COc1ccc(-c2[nH]ncc2C(=O)NCc2cccc(OC)c2)cc1 | inactive: -2.02%
31 | CCOC(=O)[C@H](CCc1ccccc1)N[C@@H](C)C(=O)N1CCC[C@H]1C(=O)O | inactive: 17.4%
32 | CCn1c(=O)cc(SCC(=O)NCc2ccc(Cl)cc2)c2ccccc21 | inactive: -7.07%
33 | Cc1ccc(CNC(=O)CSc2nnc(C)c3c(C)n(-c4ccccc4)nc23)cc1 | inactive: 0.539%
34 | CC1CCN(S(=O)(=O)c2ccc3c(ccc(=O)n3CC(=O)NCc3ccccc3Cl)c2)CC1 | inactive: -7.22%
35 | Cc1ccc(/C=C(\C#N)C(=O)Nc2cccc(Cl)c2)o1 | inactive: -8.67%
36 | COc1ccc(CCNC(=O)C2CCN(Cc3nc(-c4ccc(OC)c(OC)c4)oc3C)CC2)cc1OC | inactive: -3.09%
37 | O=C(NCCn1cc(SCc2ccc(Br)cc2)c2ccccc21)c1cccs1 | inactive: -18.4%
38 | CCCC(=O)N1CCc2cc(OC)c(OC)cc2C1COc1ccc(C(=O)OC)cc1 (centres undefined) | inactive: 40.7%
39 | CCC1Oc2ccccc2N(CC(=O)NCc2cc(OC)ccc2OC)C1=O (centres undefined) | inactive: -1.05%
40 | CCN(CC)C(=O)Cn1c(=O)n(CC2CCC(C(=O)NC)CC2)c(=O)c2sccc21 (centres undefined) | inactive: 1.59%
41 | CCOc1ccccc1-c1nc(Cn2c(=O)cc(C)c3c(C)nn(-c4ccccc4)c32)c(C)o1 | inactive: -7.43%
42 | Cc1cc(C)cc(OCCCn2c(-c3ccc(Cl)cc3)nc3ccccc3c2=O)c1 | inactive: -0.704%
43 | COc1ccc(C(CC(=O)NCc2ccc(Cl)cc2)N2Cc3ccccc3C2=O)cc1OC (centres undefined) | inactive: -20.4%
44 | COC(=O)c1sc(-c2ccccc2)cc1NC(=O)Nc1ccc(F)cc1 | inactive: -19.4%
45 | Cc1cc(C)cc(NC(=O)C2CCCN2S(=O)(=O)c2ccc3nc(-c4ccccc4)[nH]c3c2)c1 (centres undefined) | inactive: -15.6%
46 | COCCNC(=O)CCCn1c(SCC(=O)c2ccc(Br)cc2)nc2c(sc3ccccc32)c1=O | inactive: -21.6%
47 | O=c1c2ccccc2n(Cc2c(F)cccc2Cl)c(=O)n1CCc1ccccc1 | inactive: -21.9%
48 | Cc1cc2c(cc3c(SCc4ccc(Cl)cc4)nncn32)o1 | inactive: 40%
49 | COc1ccc(C)cc1NC(=O)c1cnc2ccc(C)cn2c1=O | inactive: 0.61%
50 | CCOc1cc(C2c3c(oc4ccccc4c3=O)C(=O)N2Cc2ccc(OC)cc2)ccc1O (centres undefined) | inactive: -6.81%
51 | Cc1ccn2c(=O)cc(COc3ccc(NC(=O)COc4ccc(C)c(C)c4)cc3)nc2c1 | inactive: 3.16%
52 | Cc1ccc(OCC(=O)NCC(c2ccc(Cl)cc2)N2CCOCC2)cc1C (centres undefined) | inactive: -22.5%
53 | Cc1cccc(Nc2c(-c3ccsc3)nc3nc(C)cc(C)n23)c1 | inactive: -29.7%
54 | O=C(CCCCn1c(=O)c2ccccc2n(Cc2cccc(F)c2)c1=O)NCc1ccc2c(c1)OCO2 | inactive: -2.31%
